This note sets out measurements from patent US20220348632A1 (Novartis, published 2022).

Assay [1] addresses T1, recombinant human MICB*001 ligand (human, UniProt Q29980 23-309, Biotinylated for capture on the SA chip in the bivalent setup, according to our card. The site is not given.).
T1 construct: also called hMICB*001
T1 sequence: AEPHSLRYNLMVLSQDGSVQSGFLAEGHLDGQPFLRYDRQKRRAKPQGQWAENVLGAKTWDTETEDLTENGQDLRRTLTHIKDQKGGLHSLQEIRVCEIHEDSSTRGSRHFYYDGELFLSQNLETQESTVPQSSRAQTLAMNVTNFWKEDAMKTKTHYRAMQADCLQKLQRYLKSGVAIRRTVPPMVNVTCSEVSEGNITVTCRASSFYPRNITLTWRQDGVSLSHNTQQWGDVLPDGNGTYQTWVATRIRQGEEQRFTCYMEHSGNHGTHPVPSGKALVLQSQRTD
Description: SPR (Biacore T200), bivalent setup: biotinylated ligand captured on SA chip, NKG2D-Fc as analyte. How it is done: (§1) A direct binding assay was performed to characterize the binding of the ADCC enhanced and wild-type NKG2D-Fc variants against recombinant human MICA*001 and MICB*001 ligands. The NKG2D-Fc variants were first used as ligand to characterize the binding of each NKG2D dimer to MICA and MICB (monovalent binding setup) and secondly as analyte in order to determine the effect on the binding when having two homodimers (bivalent binding setup).
(§2) For the bivalent binding setup, kinetic binding affinity constants (KD) were measured on streptavidin captured recombinant human NKG2D ligands using NKG2D-Fc variants as analyte. Measurements were conducted on a BIAcore® T200 (GE Healthcare, Glattbrugg, Switzerland) at room temperature. All proteins were diluted in 0.01 M HEPES pH 7.4, 0.15 M NaCl, 3 mM EDTA, 0.005% v/v Surfactant P20. The biotinylated NKG2D ligands were covalently captured on the flow cells of a SA research grade sensor chip (GE Healthcare, ref 29104992) using standard procedure according to the manufacturer's recommendation (GE Healthcare). To serve as reference, one flow cell was blank immobilized. Binding data were acquired by subsequent injection of analyte dilutions series on the reference and measuring flow cell. Zero concentration samples (running buffer only) were included to allow double referencing during data evaluation. For data evaluation, doubled referenced sensograms were used and dissociation constants (KD) analyzed.
(In SPR one partner is held on a chip, and binding of the other changes the refractive index at the surface.)

For assay [2], the target named is T2, recombinant human MICA*001 ligand (human, UniProt Q29983 24-307, Biotinylated for capture on the SA chip in the bivalent setup, according to our card. The site is not given.).
T2 construct: also called hMICA*001
T2 sequence: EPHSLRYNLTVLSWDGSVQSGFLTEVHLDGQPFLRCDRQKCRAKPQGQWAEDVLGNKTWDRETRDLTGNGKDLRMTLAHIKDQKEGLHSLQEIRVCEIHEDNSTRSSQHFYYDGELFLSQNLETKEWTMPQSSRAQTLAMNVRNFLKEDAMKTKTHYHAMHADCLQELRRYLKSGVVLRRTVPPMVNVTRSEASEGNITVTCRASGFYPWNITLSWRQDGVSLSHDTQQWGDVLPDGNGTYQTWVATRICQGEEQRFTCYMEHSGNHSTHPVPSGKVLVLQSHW
The description is as above. As for the experimental part: as §1, §2

For assay [3], the target named is T3, human ULBP2 expressed on cells (human, UniProt Q9BZM5 26-217).
T3 sequence (looked up): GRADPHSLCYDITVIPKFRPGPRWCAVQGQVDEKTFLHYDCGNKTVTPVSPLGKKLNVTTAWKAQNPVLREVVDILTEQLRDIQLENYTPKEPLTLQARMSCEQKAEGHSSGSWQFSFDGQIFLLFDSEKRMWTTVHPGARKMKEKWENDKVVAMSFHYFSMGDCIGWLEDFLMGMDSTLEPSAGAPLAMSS
The experiment in a line: cell-based or functional assay.

Assay [4] concerns the target T1, recombinant human MICB*001 ligand. Description: SPR (Biacore T200), monovalent setup: NKG2D-Fc captured on Protein A chip, ligand as analyte. How it is done: as §1
(§3) For the monovalent binding setup, kinetic binding affinity constants (KD) were measured on protein-A captured NKG2D-Fc variants using recombinant human NKG2D ligands as analyte. Measurements were conducted on a BIAcore® T200 (GE Healthcare, Glattbrugg, Switzerland) at room temperature. The NKG2D-Fc variants were captured on the flow cell of a Protein A research grade sensor chip (GE Healthcare, ref 29127555). All proteins were diluted in 0.01 M HEPES pH 7.4, 0.15 M NaCl, 3 mM EDTA, 0.005% v/v Surfactant P20. To serve as reference, one flow cell was left blank without any captured protein. Binding data were acquired by subsequent injection of analyte dilutions series on the reference and measuring flow cell. Zero concentration samples (running buffer only) were included to allow double referencing during data evaluation. For data evaluation, doubled referenced sensograms were used and dissociation constants (KD) analyzed.

Assay [5] concerns the target T2, recombinant human MICA*001 ligand. The description is as above. As for the experimental part: as §1, §3

B1: HH8, hNKG2D(aa84-216)-RS(G3S)2-hNKG2D(aa84-216)-hFc1 (Fc fusion)
chain: NQEVQIPLTESYCGPCPKNWICYKNNCYQFFDESKNWYESQASCMSQNASLLKVYSKEDQDLLKLVKSYHWMGLVHIPTNGSWQWEDGSILSPNLLTIIEMQKGDCALYASSFKGYIENCSTPNTYICMQRTVRSGGGSGGGSNQEVQIPLTESYCGPCPKNWICYKNNCYQFFDESKNWYESQASCMSQNASLLKVYSKEDQDLLKLVKSYHWMGLVHIPTNGSWQWEDGSILSPNLLTIIEMQKGDCALYASSFKGYIENCSTPNTYICMQRTV[human IgG1 Fc left out here]
notes: Homodimer of two monomers joined through the Fc; also called NKG2D-Fc; HH8 with IgG1-Fc wt
What is called koff is the first-order rate constant of dissociation. Broadly, the kon is the second-order rate constant of association. Take B1: the figures for the Kd in assay [1], in assay [4] and in assay [5] were 0.00089 µM, 0.114 µM and 0.06 µM, respectively. Moreover, the koff is 0.00281 s⁻¹ in assay [1] and 0.000814 s⁻¹ in assay [2]. In addition, the kon worked out at 3.89e+06 M⁻¹ s⁻¹ in assay [1] and 4.83e+06 M⁻¹ s⁻¹ in assay [2]. In addition, the “ADCP EC50, phagocytosis by primary mouse macrophages (flow cytometry)” value in assay [3] is under 0.001 µM.
